# From publication PMC10315710, “Diacylglycerol kinase ζ interacts with sphingomyelin synthase 1 and sphingomyelin synthase‐related protein via different regions” (FEBS Open Bio, 2023)
# Results are given in words; binding and its absence hold for the method and conditions named. In cells and extracts the contact can be indirect. Some binding calls cover weakened binding; strength is not graded here. Where a sequence is shown, tags or fusion partners need not be part of it.
# T1: SMS1‐V5 (C-terminal V5-tagged human sphingomyelin synthase 1) (human) (UniProt Q86VZ5)
# T1 sequence: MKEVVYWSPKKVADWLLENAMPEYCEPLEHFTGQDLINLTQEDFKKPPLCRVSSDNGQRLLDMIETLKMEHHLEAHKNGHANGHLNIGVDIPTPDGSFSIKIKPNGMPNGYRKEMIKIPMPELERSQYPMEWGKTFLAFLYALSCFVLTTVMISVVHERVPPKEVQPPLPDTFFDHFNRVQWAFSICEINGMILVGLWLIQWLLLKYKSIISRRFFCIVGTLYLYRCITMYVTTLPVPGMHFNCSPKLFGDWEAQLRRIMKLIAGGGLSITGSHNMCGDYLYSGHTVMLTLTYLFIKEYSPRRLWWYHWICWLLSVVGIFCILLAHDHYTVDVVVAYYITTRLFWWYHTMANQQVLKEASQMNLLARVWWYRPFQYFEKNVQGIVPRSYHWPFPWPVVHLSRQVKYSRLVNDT
# T2: SMS2‐V5 (C-terminal V5-tagged human sphingomyelin synthase 2) (human) (UniProt Q8NHU3)
# T2 sequence: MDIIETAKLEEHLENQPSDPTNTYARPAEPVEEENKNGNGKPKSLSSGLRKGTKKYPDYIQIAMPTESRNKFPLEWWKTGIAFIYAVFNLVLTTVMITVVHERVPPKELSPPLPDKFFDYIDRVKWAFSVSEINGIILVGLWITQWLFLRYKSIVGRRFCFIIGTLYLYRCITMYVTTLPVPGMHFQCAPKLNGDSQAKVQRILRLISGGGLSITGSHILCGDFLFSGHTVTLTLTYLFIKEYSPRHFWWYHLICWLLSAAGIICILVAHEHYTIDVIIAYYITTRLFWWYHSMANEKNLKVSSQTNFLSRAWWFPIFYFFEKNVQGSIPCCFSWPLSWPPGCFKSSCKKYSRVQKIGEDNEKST
# T3: SMSr‐V5 (C-terminal V5-tagged human sphingomyelin synthase-related protein) (human) (UniProt Q96LT4)
# T3 sequence: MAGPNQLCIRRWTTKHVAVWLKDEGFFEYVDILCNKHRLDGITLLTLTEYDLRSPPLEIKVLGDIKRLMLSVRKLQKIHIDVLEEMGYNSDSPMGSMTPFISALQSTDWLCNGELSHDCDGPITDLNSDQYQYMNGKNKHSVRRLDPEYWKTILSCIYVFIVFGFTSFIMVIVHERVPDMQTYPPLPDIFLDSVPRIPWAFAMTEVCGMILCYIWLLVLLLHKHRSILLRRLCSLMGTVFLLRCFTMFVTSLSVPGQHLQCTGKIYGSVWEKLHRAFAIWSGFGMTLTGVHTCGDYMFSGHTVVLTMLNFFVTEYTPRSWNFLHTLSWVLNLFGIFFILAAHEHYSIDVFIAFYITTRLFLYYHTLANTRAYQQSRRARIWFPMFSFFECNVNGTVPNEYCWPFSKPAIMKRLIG
# B1: 3×FLAG‐DGKδ1 (enzyme, UniProt Q16760-2 1-1170)
# chain: MNMFLYFQTIIKEGMLTKQNNSFQRSKRRYFKLRGRTLYYAKTAKSIIFDEVDLTDASVAESSTKNVNNSFTVITPCRKLILCADNRKEMEDWIAALKTVQNREHFEPTQYSMDHFSGMHNWYACSHARPTYCNVCREALSGVTSHGLSCEVCKFKAHKRCAVRATNNCKWTTLASIGKDIIEDADGIAMPHQWLEGNLPVSAKCTVCDKTCGSVLRLQDWRCLWCKAMVHTSCKESLLTKCPLGLCKVSVIPPTALNSIDSDGFWKASCPPSCTSPLLVFVNSKSGDNQGVKFLRRFKQLLNPAQVFDLMNGGPHLGLRLFQKFDTFRILVCGGDGSVGWVLSEIDSLNLHKQCQLGVLPLGTGNDLARVLGWGSACDDDTQLPQILEKLERASTKMLDRWSVMAYEAKLPRQASSSTVTEDFSEDSEVQQILFYEDSVAAHLSKILTSDQHSVVISSAKVLCETVKDFVARVGKAYEKTTESSEESEVMAKKCSVLKEKLDSLLKTLDDESQASSSLPNPPPTIAEEAEDGDGSGSICGSTGDRLVASACPARPQIFRPREQLMLRANSLKKAIRQIIEHTEKAVDEQNAQTQEQEGFVLGLSESEEKMDHRVCPPLSHSESFGVPKGRSQRKVSKSPCEKLISKGSLSLGSSASLPPQPGSRDGLPALNTKILYPNVRAGMSGSLPGGSVISRLLINADPFNSEPETLEYYTEKCVMNNYFGIGLDAKISLDFNNKRDEHPEKCRSRTKNMMWYGVLGTKELLHRTYKNLEQKVLLECDGRPIPLPSLQGIAVLNIPSYAGGTNFWGGTKEDDTFAAPSFDDKILEVVAVFGSMQMAVSRVIRLQHHRIAQCRTVKISILGDEGVPVQVDGEAWVQPPGYIRIVHKNRAQTLTRDRAFESTLKSWEDKQKCELPRPPSCSLHPEMLSEEEATQMDQFGQAAGVLIHSIREIAQSHRDMEQELAHAVNASSKSMDRVYGKPRTTEGLNCSFVLEMVNNFRALRSETELLLSGKMALQLDPPQKEQLGSALAEMDRQLRRLADTPWLCQSAEPGDEESVMLDLAKRSRSGKFRLVTKFKKEKNNKNKEAHSSLGAPVHLWGTEEVAAWLEHLSLCEYKDIFTRHDIRGSELLHLERRDLKDLGVTKVGHMKRILCGIKELSRSAPAVEA
# B2: 3×FLAG‐DGKδ2 (enzyme, UniProt Q16760-1 1-1214)
# chain: MAAAAGAPPPGPPQPPPPPPPEESSDSEPEAEPGSPQKLIRKVSTSGQIRQKTIIKEGMLTKQNNSFQRSKRRYFKLRGRTLYYAKTAKSIIFDEVDLTDASVAESSTKNVNNSFTVITPCRKLILCADNRKEMEDWIAALKTVQNREHFEPTQYSMDHFSGMHNWYACSHARPTYCNVCREALSGVTSHGLSCEVCKFKAHKRCAVRATNNCKWTTLASIGKDIIEDADGIAMPHQWLEGNLPVSAKCTVCDKTCGSVLRLQDWRCLWCKAMVHTSCKESLLTKCPLGLCKVSVIPPTALNSIDSDGFWKASCPPSCTSPLLVFVNSKSGDNQGVKFLRRFKQLLNPAQVFDLMNGGPHLGLRLFQKFDTFRILVCGGDGSVGWVLSEIDSLNLHKQCQLGVLPLGTGNDLARVLGWGSACDDDTQLPQILEKLERASTKMLDRWSVMAYEAKLPRQASSSTVTEDFSEDSEVQQILFYEDSVAAHLSKILTSDQHSVVISSAKVLCETVKDFVARVGKAYEKTTESSEESEVMAKKCSVLKEKLDSLLKTLDDESQASSSLPNPPPTIAEEAEDGDGSGSICGSTGDRLVASACPARPQIFRPREQLMLRANSLKKAIRQIIEHTEKAVDEQNAQTQEQEGFVLGLSESEEKMDHRVCPPLSHSESFGVPKGRSQRKVSKSPCEKLISKGSLSLGSSASLPPQPGSRDGLPALNTKILYPNVRAGMSGSLPGGSVISRLLINADPFNSEPETLEYYTEKCVMNNYFGIGLDAKISLDFNNKRDEHPEKCRSRTKNMMWYGVLGTKELLHRTYKNLEQKVLLECDGRPIPLPSLQGIAVLNIPSYAGGTNFWGGTKEDDTFAAPSFDDKILEVVAVFGSMQMAVSRVIRLQHHRIAQCRTVKISILGDEGVPVQVDGEAWVQPPGYIRIVHKNRAQTLTRDRAFESTLKSWEDKQKCELPRPPSCSLHPEMLSEEEATQMDQFGQAAGVLIHSIREIAQSHRDMEQELAHAVNASSKSMDRVYGKPRTTEGLNCSFVLEMVNNFRALRSETELLLSGKMALQLDPPQKEQLGSALAEMDRQLRRLADTPWLCQSAEPGDEESVMLDLAKRSRSGKFRLVTKFKKEKNNKNKEAHSSLGAPVHLWGTEEVAAWLEHLSLCEYKDIFTRHDIRGSELLHLERRDLKDLGVTKVGHMKRILCGIKELSRSAPAVEA
# B3: 3×FLAG‐DGKη2 (enzyme, UniProt Q86XP1 1-1220)
# chain: MAGAGGQHHPPGAAGGAAAGAGAAVTSAAASAGPGEDSSDSEAEQEGPQKLIRKVSTSGQIRTKTSIKEGQLLKQTSSFQRWKKRYFKLRGRTLYYAKDSKSLIFDEVDLSDASVAEASTKNANNSFTIITPFRRLMLCAENRKEMEDWISSLKSVQTREPYEVAQFNVEHFSGMHNWYACSHARPTFCNVCRESLSGVTSHGLSCEVCKFKAHKRCAVRATNNCKWTTLASIGKDIIEDEDGVAMPHQWLEGNLPVSAKCAVCDKTCGSVLRLQDWKCLWCKTMVHTACKDLYHPICPLGQCKVSIIPPIALNSTDSDGFCRATFSFCVSPLLVFVNSKSGDNQGVKFLRRFKQLLNPAQVFDLMNGGPHLGLRLFQKFDNFRILVCGGDGSVGWVLSEIDKLNLNKQCQLGVLPLGTGNDLARVLGWGGSYDDDTQLPQILEKLERASTKMLDRWSIMTYELKLPPKASLLPGPPEASEEFYMTIYEDSVATHLTKILNSDEHAVVISSAKTLCETVKDFVAKVEKTYDKTLENAVVADAVASKCSVLNEKLEQLLQALHTDSQAAPVLPGLSPLIVEEDAVESSSEESLGESKEQLGDDVTKPSSQKAVKPREIMLRANSLKKAVRQVIEEAGKVMDDPTVHPCEPANQSSDYDSTETDESKEEAKDDGAKESITVKTAPRSPDARASYGHSQTDSVPGPAVAASKENLPVLNTRIICPGLRAGLAASIAGSSIINKMLLANIDPFGATPFIDPDLDSVDGYSEKCVMNNYFGIGLDAKISLEFNNKREEHPEKCRSRTKNLMWYGVLGTRELLQRSYKNLEQRVQLECDGQYIPLPSLQGIAVLNIPSYAGGTNFWGGTKEDDIFAAPSFDDKILEVVAIFDSMQMAVSRVIKLQHHRIAQCRTVKITIFGDEGVPVQVDGEAWVQPPGIIKIVHKNRAQMLTRDRAFESTLKSWEDKQKCDSGKPVLRTHLYIHHAIDLATEEVSQMQLCSQAAEELITRICDAATIHCLLEQELAHAVNACSHALNKANPRCPESLTRDTATEIAINVKALYNETESLLVGRVPLQLESPHEERVSNALHSVEVELQKLTEIPWLYYILHPNEDEEPPMDCTKRNNRSTVFRIVPKFKKEKVQKQKTSSQPVQKWGTEEVAAWLDLLNLGEYKDIFIRHDIRGAELLHLERRDLKDLGIPKVGHVKRILQGIKELGRSTPQSEV
# Molecular target: T1, SMS1‐V5 (C-terminal V5-tagged human sphingomyelin synthase 1) (human)
# Experiment: co-IP; HEK293 cell lysates expressing V5-tagged SMS1, SMS2 or SMSr and 3×FLAG-tagged DGK isozymes; immunoprecipitation with anti-V5 antibody and Protein A/G PLUS-agarose; western blot with anti-FLAG and anti-V5
row,Binder,binding
1,B1,no binding
2,B2,no binding
3,B3,no binding

# Molecular target: T2, SMS2‐V5 (C-terminal V5-tagged human sphingomyelin synthase 2) (human)
# Experiment: as above
row,Binder,binding
1,B1,no binding
2,B2,no binding
3,B3,no binding

# Molecular target: T3, SMSr‐V5 (C-terminal V5-tagged human sphingomyelin synthase-related protein) (human)
# Experiment: as above
row,Binder,binding
1,B1,binds
2,B2,binds
3,B3,no binding
